Results from the RNAGym collection of RNA variant scans (doi:10.7554/elife.90254).
The source gives no read counts; variants with many changes may rest on few reads.

B1: LINE1-mini (parent)
chain: GGCAGAGCUCAACACAGCGUGGCAAAGUGGCUGUGGCUAGACUGCC

Variants of: B1
Experiment: self-cleavage, relative activity (ratio to wild type); higher = more cleavage; in vitro, sequencing; the parent is a self-cleaving ribozyme

| Variant | self-cleavage |
| --- | --- |
| C13U G40C U43C | 0 |
| A14C G21A U28G U43A | 0.06 |
| C13U G40U U43A | 0.11 |
| A14C G19U U34G | 0.05 |
| C13U U34C U38A | 0.04 |
| A14C C15G A16U C18A | 0.08 |
| C13U C18G A26C C31A | 0.17 |
| C13U C18A C23G A25U A39G | 0.05 |
| C13U A24C U28A U34C | 0.06 |
| C13U G27U C46U | 0.18 |
| A14C C23A G29U G30U | 0.1 |
| C13U C15A C45A | 0.03 |
| C13U G19A C31A U38G | 0.01 |
| C13U C18A C31G G40U U43G C45A | 0.03 |
| A14C A39G C46A | 0.02 |
| A14C C23G U34A C45G | 0.06 |
| C13U G19U C23G G36A | 0.13 |
| C13U G27C U28C U38G A41C | 0.01 |
| C13U U32A C45A | 0.02 |
| A14C G27U G29A A39G | 0.04 |
| A14C G30A U34C | 0.03 |

| Variant | self-cleavage |
| --- | --- |
| C13U U32A C42U | 0.04 |
| C13U U20A A26U G30A | 0.09 |
| C13U C18A A26G U34C | 0.02 |
| A14C G30U C45G | 0.04 |
| A14C C18U G35C | 0.03 |
| C13U A24U U28C G40A | 0.01 |
| C13U G33A A41U | 0.24 |
| C13U G17A C31U G33C | 0.09 |
| A14C A16U C46U | 0.01 |
| C13U G21U G40U | 0.03 |
| A14C A25U G27U C37A | 0.04 |
| C13U C18A A25C | 0.02 |
| C13U A25C U32A | 0.08 |
| C13U G21A U34C C42U G44U | 0.52 |
| A14C G21C G22A C42A G44C C45A | 0.03 |
| C13U C23U U28A | 0.05 |
| A14C G19U G36A U43G | 0.03 |
| C13U G30C G36C C46U | 0.12 |
| A14C A16C G29C G30C U32C U34A | 0 |
| C13U G33A G35U G36U | 0.01 |
| A14C A16U G17U A24C | 0.21 |

| Variant | self-cleavage |
| --- | --- |
| C13U G22C C46U | 0.01 |
| A14C G21A U38G | 0 |
| C13U G36A A41C | 0.12 |
| C13U G35C C37A C42A | 0.08 |
| C13U C23U A25C U43A | 0.07 |
| A14C C23G C45A | 0.08 |
| A14C G17C C46U | 0.04 |
| C13U G35C G40U | 1.26 |
| A14C G19U G22A G29A G36C | 0.02 |
| A14C G29A G33U A41U | 0.07 |
| C13U U20A C45U | 0.02 |
| C13U U20A C45G | 0.25 |
| C13U C37U C46A | 0.07 |
| C13U G22U C23U A24C C46A | 0.36 |
| C13U C15G U20A | 0.01 |
| C13U C15U G21U A26G U28C G33C C37A | 0.06 |
| C13U C23U U38G U43C | 0 |
| C13U U32G U34A | 0.02 |
| C13U U20C G22A | 0.02 |
| C13U G17A G19A U28A C42U | 0.15 |
| C13U G27U C37G | 0.03 |

| Variant | self-cleavage |
| --- | --- |
| C13U G17A G19U G33U | 0.05 |
| C13U G21A C23U | 0.41 |
| C13U G17C G44U | 0.1 |
| C13U G19C G27C G40U G44U | 0.05 |
| C13U C18A U20A C23G C37A A41G | 0.07 |
| C13U U20G C23G G30U | 0.04 |
| A14C G21A G36U | 0.04 |
| C13U G21U G30C | 0.08 |
| C13U C15U U28C | 0.07 |
| C13U U20C C31G C46A | 0.01 |
| C13U U28C U34G | 0.01 |
| C13U C15U G19C C42U | 0.03 |
| C13U G30U C37G G40C | 0.07 |
| C13U C18G G27A U43A | 0.09 |
| C13U U34A C37U | 0.01 |
| C13U G17U G19A | 0.07 |
| C13U G30U C42U | 0.02 |
| C13U C18A C23A | 0.14 |
| A14C A24C G30A G35C A41G | 0.03 |
| C13U A25C G27C U38A A39U C46G | 0.02 |
